57 molecules from article PMC4336329 (PLoS ONE, 2015) can be followed below.

The whole screen tested about 310,000 compounds, of which about 14,000 (4.5%) showed an effect of 50% or more. The effect is printed as a negative number. The list shows a part of the results.
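Also: peak tail current of the secondary pulse compared with the same well before compound.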

The target of the assay is human ether-à-go-go-related gene (hERG) potassium channel (human, UniProt Q12809). Kind of assay: primary screen, population patch clamp on CHO cells stably expressing hERG.
human ether-à-go-go-related gene (hERG) potassium channel, sequence (Q12809 whole entry, looked up): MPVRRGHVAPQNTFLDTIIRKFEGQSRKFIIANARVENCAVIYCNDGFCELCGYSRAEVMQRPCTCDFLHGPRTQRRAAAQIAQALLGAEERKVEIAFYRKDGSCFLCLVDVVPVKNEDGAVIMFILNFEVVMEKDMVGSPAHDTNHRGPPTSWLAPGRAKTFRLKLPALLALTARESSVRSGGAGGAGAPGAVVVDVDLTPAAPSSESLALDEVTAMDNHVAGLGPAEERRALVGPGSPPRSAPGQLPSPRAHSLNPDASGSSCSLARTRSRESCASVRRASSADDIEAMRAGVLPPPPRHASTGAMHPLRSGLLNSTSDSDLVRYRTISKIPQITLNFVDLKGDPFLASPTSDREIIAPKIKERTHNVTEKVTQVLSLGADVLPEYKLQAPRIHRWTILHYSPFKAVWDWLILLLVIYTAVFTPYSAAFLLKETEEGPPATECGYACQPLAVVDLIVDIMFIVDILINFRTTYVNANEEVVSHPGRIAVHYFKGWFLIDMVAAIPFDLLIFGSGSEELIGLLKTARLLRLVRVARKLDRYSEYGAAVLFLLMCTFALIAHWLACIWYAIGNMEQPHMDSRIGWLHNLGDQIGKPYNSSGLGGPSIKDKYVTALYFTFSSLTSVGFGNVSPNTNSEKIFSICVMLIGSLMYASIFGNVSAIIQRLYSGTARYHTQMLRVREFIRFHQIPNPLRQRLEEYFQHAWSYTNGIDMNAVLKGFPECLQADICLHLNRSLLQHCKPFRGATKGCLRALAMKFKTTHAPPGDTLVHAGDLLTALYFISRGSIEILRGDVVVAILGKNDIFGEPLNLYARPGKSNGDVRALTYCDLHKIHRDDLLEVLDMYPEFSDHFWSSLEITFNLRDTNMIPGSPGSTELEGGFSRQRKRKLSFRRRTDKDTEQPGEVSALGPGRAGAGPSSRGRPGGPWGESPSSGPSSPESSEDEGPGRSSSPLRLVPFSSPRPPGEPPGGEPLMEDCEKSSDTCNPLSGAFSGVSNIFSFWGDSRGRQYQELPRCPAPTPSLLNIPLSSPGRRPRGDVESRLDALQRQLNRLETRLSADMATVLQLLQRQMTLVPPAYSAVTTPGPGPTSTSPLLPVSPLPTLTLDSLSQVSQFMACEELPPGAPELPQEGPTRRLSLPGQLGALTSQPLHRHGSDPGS
For `Cc1nnc(SCc2ccc(Cl)cc2)nc1/C=C/N(C)C`, the “hERG current change (%, negative = inhibition) at 10uM” value is -72.6%.
For `COC(=O)c1ccccc1NC(=O)C1CC(=O)N(c2ccccc2)C1` (stereo not drawn), the “hERG current change (%, negative = inhibition) at 10uM” value is recorded as -20.3%.
The value for `O=C(Nc1cc(C(F)(F)F)ccc1N1CCOCC1)C1=NN(c2ccccc2)C(=O)CC1` was -35.9%; that for `O=C(CN1CCN(C(=O)c2ccccc2)CC1)Nc1ccc(Cl)cc1F` was -71%.
The value for `Cc1ccc(C(=O)Nc2ccc3c(c2)OCO3)cc1S(=O)(=O)N1CCCCC1` was -18.8%; that for `O=C(NCc1ccccn1)c1cccn1-c1ncc(C(F)(F)F)cc1Cl` was 8.89%; that for `COc1ccccc1N1CCN(S(=O)(=O)c2c[nH]c(=O)[nH]c2=O)CC1` was -27.1%.
In the case of `Cc1csc(NC(=O)c2ccccc2)n1`, the “hERG current change (%, negative = inhibition) at 10uM” value is 16.8%.
The figure for `O=C(/C=C/c1ccc([N+](=O)[O-])cc1)NCCc1ccccc1` is -14.4%; for `COc1ccc(C2(O)CCN(Cc3nnnn3Cc3ccc(F)cc3)CC2)cc1` it is -30.5%; for `Cc1ccc(C(=O)NCCN2CCOCC2)cc1C` it is 18.2%.
The value for `CCOC(=O)Cc1nnc(NC(=O)COc2ccc(C)cc2)s1` was 5.07%.
Regarding `COc1cc(/C=C(/C#N)c2ccc(C)cc2)ccc1Oc1ccc([N+](=O)[O-])cn1`, the “hERG current change (%, negative = inhibition) at 10uM” value is listed as -5.81%.
For `O=c1[nH]c(=O)n(CCC2=CCCCC2)c(O)c1/C=N/Nc1ccccc1`, the “hERG current change (%, negative = inhibition) at 10uM” value worked out at 14.8%.
Turning to `CCOc1ccc2nc(CN3CCN(Cc4ccsc4)C(CCO)C3)ccc2c1` (stereo not drawn), the “hERG current change (%, negative = inhibition) at 10uM” value is on record as -47%.
For the molecule `COc1ccccc1NS(=O)(=O)NC(=O)c1cn(C)c2ccccc12`, the “hERG current change (%, negative = inhibition) at 10uM” value stood at 16.8%.
The value for `O=C(c1cccc(C(F)(F)F)c1)C1CCCN(Cc2ccccc2O)C1` (stereo not drawn) was -29%; that for `O=C(NC1CCCC1)c1ccc2nc(-c3ccco3)c(-c3ccco3)nc2c1` was -40.5%.
Take `O=[N+]([O-])c1ccc(CS(=O)(=O)c2ncn[nH]2)cc1`: the “hERG current change (%, negative = inhibition) at 10uM” value is reported as 20.9%.
The figure for `CC(C)C(=O)N(Nc1nc2ccccc2s1)C(=O)C(C)C` is -0.224%.
The figure for `NC(=O)CSc1cn(CCNC(=O)c2cccs2)c2ccccc12` is 7.26%; for `O=C(Nc1cccc(F)c1)NC1(C(=O)N2CCC(O)CC2)CCCCC1` it is 16.2%; for `Cc1csc(NC(=O)CCC(=O)N(CC(=O)NC2CCCC2)c2ccccc2)n1` it is -3.43%.
In the case of `CCc1ccc(S(=O)(=O)NC2CCCCNC2=O)cc1` (stereo not drawn), the “hERG current change (%, negative = inhibition) at 10uM” value is reported as 6.65%.
Turning to `CCc1ccc(N(CC(=O)Nc2ccccc2C(=O)N2CCOCC2)S(C)(=O)=O)cc1`, the “hERG current change (%, negative = inhibition) at 10uM” value was -10.1%.
With `CC(=O)c1ccc(S(=O)(=O)NC2CC(=O)N(c3ccc4c(c3)OCCO4)C2)cc1` (stereo not drawn), the “hERG current change (%, negative = inhibition) at 10uM” value turned out to be 5.79%.
On to `CCOc1ccc(C(c2c(O)nc(SC)n(C)c2=O)c2c(O)nc(SC)n(C)c2=O)cc1`, for which the “hERG current change (%, negative = inhibition) at 10uM” value is reported as -0.68%.
Regarding `O=C(O)Cc1sc(Nc2ccccc2)nc1-c1cccs1`, the “hERG current change (%, negative = inhibition) at 10uM” value is 8.31%.
Consider `COc1ccc(OC)c(C2=CC(=O)C[C@H](c3ccc4c(c3)OCO4)C2)c1`, for which the “hERG current change (%, negative = inhibition) at 10uM” value is listed as -10.6%.
`Cc1ccc(NC(=O)CN2CCCCCC2)cc1[N+](=O)[O-]`: the “hERG current change (%, negative = inhibition) at 10uM” value is on record as 23.1%.
The value for `Cc1ccc(CONC(=O)c2ccc(OC(F)F)cc2)cc1` was -30.9%; that for `O=C(Nc1ccc(F)cc1)C1CCCN(S(=O)(=O)c2cccc3cccnc23)C1` (stereo not drawn) was -49.3%; that for `O=C(NCc1ccco1)/C(=C/c1ccc(Cl)cc1)NC(=O)c1ccco1` was -14%.
Take `OC(Cn1nnc2ccccc21)Cn1c(C(F)(F)F)nc2ccccc21` (stereo not drawn): the “hERG current change (%, negative = inhibition) at 10uM” value is -2.39%.
The figure for `Cc1ccc(S(=O)(=O)Nc2cc(C)cn(Cc3ccc(F)cc3)c2=O)cc1` is -13.3%.
`COc1ccc2[nH]c3c(c2c1)CCNC3(C)CCc1ccc(Cl)nc1` (stereo not drawn): the “hERG current change (%, negative = inhibition) at 10uM” value is reported as -51.6%.
Regarding `CCc1ccccc1NNC(=O)c1snnc1C`, the “hERG current change (%, negative = inhibition) at 10uM” value was determined as 7.88%.
The figure for `COc1cc(C=O)ccc1OC(=O)N1CCOCC1` is 14.7%; for `O=C(NCCc1ccccc1)c1ccc(CS(=O)(=O)c2ccc(Cl)cc2)o1` it is -2.15%; for `O=C(CCC1COc2ccccc2O1)NCc1ccccc1` (stereo not drawn) it is -13.9%.
The figure for `CC(C)(C)C(=O)N1CCN(c2ccc([N+](=O)[O-])c(NCc3cccnc3)c2)CC1` is -29.3%.
For the molecule `O=C(NNc1ccccc1[N+](=O)[O-])Nc1ccc(Cl)c(Cl)c1`, the “hERG current change (%, negative = inhibition) at 10uM” value was 8.2%.
Consider `Nn1c(SCc2cccc(Br)c2)nnc1-c1ccncc1`, for which the “hERG current change (%, negative = inhibition) at 10uM” value is listed as -16.5%.
Turning to `O=C(NCc1ccccc1)/C(=C/c1ccc(OC(F)F)cc1)c1ccccc1`, the “hERG current change (%, negative = inhibition) at 10uM” value is 4.19%.
As for `O=C1CC(c2ccccc2)C(C(=O)O)N1` (stereo not drawn), the “hERG current change (%, negative = inhibition) at 10uM” value is 16%.
The value for `Cc1cc(C(=O)N2CCc3c([nH]c4ccccc34)C2c2c(F)cccc2Cl)no1` (stereo not drawn) was 5.46%.
Regarding `C#CCOCOCC#CCN(CC)CC`, the “hERG current change (%, negative = inhibition) at 10uM” value was determined as 3.26%.
`COc1cc2c(C(=O)N(C)c3cc(Cl)ccc3OC)cn(C)c(=O)c2cc1OC`: the “hERG current change (%, negative = inhibition) at 10uM” value turned out to be 9.6%.
The value for `COc1cccc(CCc2nnc(CCC(=O)N3CCN(Cc4ccccn4)CC3)o2)c1` was 17%.
The figure for `CCSc1nnc(NC(=O)c2csc(C)c2)s1` is -0.0426%; for `Cc1ccc(S(=O)(=O)N2CCOCC2)cc1C(=O)N1C(=O)c2cccc(N)c2C1=O` it is -17.1%; for `CCN(CC)C(=O)Oc1ccc(Br)cc1C(=O)Nc1ccc(F)cc1F` it is -2.5%.
The value for `O=C1CCc2cc(S(=O)(=O)Nc3ccccc3Cl)ccc2N1` was -5.94%; that for `Cc1c(O)ccc2c(CN(C)Cc3ccccc3)cc(=O)oc12` was 10.2%.
With `CN1CCOC(c2ccccc2)c2ccccc2C1.Cl` (stereo not drawn), the “hERG current change (%, negative = inhibition) at 10uM” value is 3.33%.
On to `Cc1oc(C(=O)Nc2ccc(C(=O)O)cc2)cc1COc1ccccc1`, for which the “hERG current change (%, negative = inhibition) at 10uM” value was -2.55%.
The value for `COC(=O)Nc1nn(-c2ccc(OC)cc2)c(=O)c(C#N)c1C` was 4.53%.
